This note sets out measurements from patent US20190233528A1 (published 2019).

The target in this assay is T1, recombinant human CD70 (AviTag, polyhistidine tag and chicken tenascin trimerization domain fused to the … (chicken; human, UniProt P10039 110-139, limits assumed).
T1 construct: domain: trimerization domain; Expressed in Expi293, purified by IMAC and SEC; Copies 3 is inferred from the trimerization domain; not shown: AviTag; polyhistidine tag
T1 sequence: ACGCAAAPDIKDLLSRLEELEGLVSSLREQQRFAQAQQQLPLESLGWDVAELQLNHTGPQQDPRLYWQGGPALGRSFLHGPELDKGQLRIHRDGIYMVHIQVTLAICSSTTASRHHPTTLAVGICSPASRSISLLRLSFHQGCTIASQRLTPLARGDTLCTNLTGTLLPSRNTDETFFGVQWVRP
The experiment in a line: SPR (Biacore 8K, 37 C): CD70 captured via anti-AviTag antibody on C1 chip, scFv-Fc as analyte; 1:1 Langmuir fit. The procedure:
The antibody binding kinetics were determined by surface plasmon resonance (Biacore 8K, GE Healthcare Bio-Sciences, Pittsburgh Pa.) at 37° C. in HBS-T+ (0.01 M HEPES pH 7.4, 0.15 M NaCl, 0.05% v/v Tween20, 1 mg/mL BSA). Recombinant human CD70 diluted in HBS-T+ was captured on a C1 chip immobilized with an anti-AviTag™ antibody. Purified anti-CD70 scFv-Fc fusions were serially diluted into HBS-T+, injected at 30 uL/min for 2-4 min, dissociation monitored for 10 min then the surface regenerated with 75 mM phosphoric acid between injections. Buffer cycles were collected for each anti-CD70 scFv-Fc fusion for double-referencing purposes (double-referencing as described in Myszka, D. G. Improving biosensor analysis. J. Mol. Recognit. 12, 279-284 (1999)). Kinetic association rates (kₒₙ) and dissociation rates (koff) were obtained simultaneously by fitting the double-referenced sensorgrams globally to a 1:1 Langmuir with mass transport model using Biacore 8K Evaluation Software (GE Healthcare Bio-Sciences, Pittsburgh Pa.) then used to calculate an equilibrium dissociation constant (KD) from the kinetic rate constants (KD=koff/kₒₙ). The data was fit to a 1:1 steady state affinity model using Biacore 8K Evaluation Software to determine a steady state equilibrium dissociation constant (SS KD) as needed.
(In SPR one partner is held on a chip, and binding of the other changes the refractive index at the surface.)

B1: 8F8 anti-CD70 scFv-Fc fusion (Fc fusion)
chain: QVQLQESGPGLVQPSETLSLTCTVSGGSISYYYWSWIRQPPGKGLEWIGNINYMGNTIYNPSLKSRVTISVDTSKDQFSLKLTSVSAADTAVYYCVRAEGSLDAFDFWGQGTLVAVSLGGGGSGGGGSGGGGSGGGGS[gap - about 100 residues]CTFGQGTKLEIK
notes: scFv-Fc expressed in Expi293; not shown: part of the hinge and Fc from a modified human IgG2
With B1, the Kd (usually a measure of binding affinity in units of concentration) is 2.3 nM; the koff (commonly the first-order rate constant of dissociation) was determined as 0.000793 s⁻¹; the on-rate constant (kon) – broadly, the rate constant with which the complex forms – worked out at 348000 M⁻¹ s⁻¹; the “t1/2” value worked out at 14.6 min.
